# Some of the results follow.
# B1: MRCL (Homo sapiens), NP_872425.1 (protein)
# chain: ATKVHFPFHTCDLRIDGDCFMVSSEADTYYRARMKCQRKGGVLAQIKSQKVQDILAFYLGRLETTNEVTDSDFETRNFWIGLTYKTAKDSFRWATGEHQAFTSFAFGQPDNHGLVWLSAAMGFGNCVELQASAAFNWNNQRCKTRNRYICQFAQEHISRWGPGS
# Tests used:
# Assay in all cases: glycan array binding signal (z-score within array); higher = stronger binding
# Conditions in all cases: glycan notation: IUPAC condensed, linker removed
# [1] = biological target: Gal(b1-3)[Fuc(a1-4)]GlcNAc
# Procedure, shortened: (§1)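 The binding signal is a Z-score computed within each array and averaged over linkers. Arrays of the same protein sequence at different concentrations or buffers were also averaged together. Data originate from 3228 arrays in the Consortium for Functional Glycomics database, kept only where the protein sequence was available.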
# [2] = biological target: Gal(b1-3)[Fuc(a1-4)]GlcNAc(b1-2)Man(a1-3)[Gal(b1-3)[Fuc(a1-4)]GlcNAc(b1-2)Man(a1-6)]Man(b1-4)GlcNAc(b1-4)GlcNAc
# Procedure, shortened: as §1
# [3] = biological target: Gal(b1-3)[Fuc(a1-4)]GlcNAc(b1-2)Man(a1-3)[Gal(b1-3)[Fuc(a1-4)]GlcNAc(b1-2)Man(a1-6)]Man(b1-4)GlcNAc(b1-4)[Fuc(a1-6)]GlcNAc
# Procedure, shortened: as §1
# [4] = biological target: Gal(b1-3)[Fuc(a1-4)]GlcNAc(b1-3)Gal(b1-3)[Fuc(a1-4)]GlcNAc
# Procedure, shortened: as §1
# [5] = biological target: Gal(b1-3)[Fuc(a1-4)]GlcNAc(b1-3)Gal(b1-4)GlcNAc
# Procedure, shortened: as §1
# [6] = biological target: Gal(b1-3)[Fuc(a1-4)]GlcNAc(b1-3)Gal(b1-4)[Fuc(a1-3)]GlcNAc
# Procedure, shortened: as §1
# [7] = biological target: Gal(b1-3)[GlcNAc(b1-6)]GalNAc
# Procedure, shortened: as §1
# [8] = biological target: Gal(b1-3)[Neu5Ac(a2-6)]GalNAc
# Procedure, shortened: as §1
# [9] = biological target: Gal(b1-3)[Neu5Ac(a2-6)]GlcNAc(b1-6)Gal(b1-4)Glc
# Procedure, shortened: as §1
# [10] = biological target: Gal(b1-3)[Neu5Ac(b2-6)]GalNAc
# Procedure, shortened: as §1
# [11] = biological target: Gal(b1-4)GalNAc(a1-3)[Fuc(a1-2)]Gal(b1-4)GlcNAc
# Procedure, shortened: as §1
# [12] = biological target: Gal(b1-4)GalNAc(b1-3)[Fuc(a1-2)]Gal(b1-4)GlcNAc
# Procedure, shortened: as §1
# Gal(b1-4)Glc = biological target: Gal(b1-4)Glc
# Procedure, shortened: as §1
# Gal(b1-4)Glc6S = biological target: Gal(b1-4)Glc6S
# Procedure, shortened: as §1
# Gal(b1-4)GlcNAc = biological target: Gal(b1-4)GlcNAc
# Procedure, shortened: as §1
# [13] = biological target: Gal(b1-4)GlcNAc(a1-6)Gal(b1-4)GlcNAc
# Procedure, shortened: as §1
# [14] = biological target: Gal(b1-4)GlcNAc(b1-2)Man(a1-3)Man(b1-4)GlcNAc(b1-4)GlcNAc
# Procedure, shortened: as §1
# [15] = biological target: Gal(b1-4)GlcNAc(b1-2)Man(a1-3)[Gal(b1-4)GlcNAc(b1-2)Man(a1-6)]Man(b1-4)GlcNAc(b1-4)GlcNAc
# Procedure, shortened: as §1
# [16] = biological target: Gal(b1-4)GlcNAc(b1-2)Man(a1-3)[Gal(b1-4)GlcNAc(b1-2)Man(a1-6)]Man(b1-4)GlcNAc(b1-4)[Fuc(a1-6)]GlcNAc
# Procedure, shortened: as §1
# [17] = biological target: Gal(b1-4)GlcNAc(b1-2)Man(a1-3)[Man(a1-6)]Man(b1-4)GlcNAc(b1-4)GlcNAc
# Procedure, shortened: as §1
# [18] = biological target: Gal(b1-4)GlcNAc(b1-2)Man(a1-6)Man(b1-4)GlcNAc(b1-4)GlcNAc
# Procedure, shortened: as §1
# [19] = biological target: Gal(b1-4)GlcNAc(b1-2)Man(a1-6)[Man(a1-3)]Man(b1-4)GlcNAc(b1-4)GlcNAc
# Procedure, shortened: as §1
# [20] = biological target: Gal(b1-4)GlcNAc(b1-2)[Gal(b1-4)GlcNAc(b1-4)]Man(a1-3)[Gal(b1-4)GlcNAc(b1-2)Man(a1-6)]Man(b1-4)GlcNAc(b1-4)GlcNAc
# Procedure, shortened: as §1
# [21] = biological target: Gal(b1-4)GlcNAc(b1-3)Gal(b1-3)GlcNAc
# Procedure, shortened: as §1
# [22] = biological target: Gal(b1-4)GlcNAc(b1-3)Gal(b1-4)Glc
# Procedure, shortened: as §1
# [23] = biological target: Gal(b1-4)GlcNAc(b1-3)Gal(b1-4)GlcNAc
# Procedure, shortened: as §1
# [24] = biological target: Gal(b1-4)GlcNAc(b1-3)Gal(b1-4)GlcNAc(b1-3)Gal(b1-4)GlcNAc
# Procedure, shortened: as §1
# [25] = biological target: Gal(b1-4)GlcNAc(b1-3)Gal(b1-4)[Fuc(a1-3)]GlcNAc(b1-3)Gal(b1-4)[Fuc(a1-3)]GlcNAc
# Procedure, shortened: as §1
# [26] = biological target: Gal(b1-4)GlcNAc(b1-3)GalNAc
# Procedure, shortened: as §1
# [27] = biological target: Gal(b1-4)GlcNAc(b1-3)[Gal(b1-4)GlcNAc(b1-6)]Gal(b1-4)GlcNAc
# Procedure, shortened: as §1
# [28] = biological target: Gal(b1-4)GlcNAc(b1-3)[GlcNAc(b1-6)]Gal(b1-4)GlcNAc
# Procedure, shortened: as §1
# [29] = biological target: Gal(b1-4)GlcNAc(b1-6)Gal(b1-4)GlcNAc
# Procedure, shortened: as §1
# [30] = biological target: Gal(b1-4)GlcNAc(b1-6)Gal(b1-4)GlcNAc(b1-6)GalNAc
# Procedure, shortened: as §1
# [31] = biological target: Gal(b1-4)GlcNAc(b1-6)GalNAc
# Procedure, shortened: as §1
# [32] = biological target: Gal(b1-4)GlcNAc(b1-6)[Gal(b1-3)]GalNAc
# Procedure, shortened: as §1
# Gal3S(b1-3)GalNAc = biological target: Gal3S(b1-3)GalNAc
# Procedure, shortened: as §1
# Gal3S(b1-3)GlcNAc = biological target: Gal3S(b1-3)GlcNAc
# Procedure, shortened: as §1
# [33] = biological target: Gal3S(b1-3)[Fuc(a1-4)]GlcNAc
# Procedure, shortened: as §1
# Gal3S(b1-4)Glc = biological target: Gal3S(b1-4)Glc
# Procedure, shortened: as §1
# Gal3S(b1-4)Glc6S = biological target: Gal3S(b1-4)Glc6S
# Procedure, shortened: as §1
# Gal3S(b1-4)GlcNAc = biological target: Gal3S(b1-4)GlcNAc
# Procedure, shortened: as §1
# Gal3S(b1-4)GlcNAc6S = biological target: Gal3S(b1-4)GlcNAc6S
# Procedure, shortened: as §1
# [34] = biological target: Gal3S(b1-4)[Fuc(a1-3)]Glc
# Procedure, shortened: as §1
# Gal3S4S(b1-4)GlcNAc = biological target: Gal3S4S(b1-4)GlcNAc
# Procedure, shortened: as §1
# Gal3S6S(b1-4)GlcNAc = biological target: Gal3S6S(b1-4)GlcNAc
# Procedure, shortened: as §1
binder,measurement,setting,value
B1,glycan array binding signal (z-score),[1],0.23
same,glycan array binding signal (z-score),[2],-0.876
same,glycan array binding signal (z-score),[3],-0.763
same,glycan array binding signal (z-score),[4],-0.379
same,glycan array binding signal (z-score),[5],-0.527
same,glycan array binding signal (z-score),[6],-0.186
same,glycan array binding signal (z-score),[7],0.917
same,glycan array binding signal (z-score),[8],-0.262
same,glycan array binding signal (z-score),[9],-0.561
same,glycan array binding signal (z-score),[10],0.533
same,glycan array binding signal (z-score),[11],-0.523
same,glycan array binding signal (z-score),[12],0.167
same,glycan array binding signal (z-score),Gal(b1-4)Glc,-0.431
same,glycan array binding signal (z-score),Gal(b1-4)Glc6S,-0.511
same,glycan array binding signal (z-score),Gal(b1-4)GlcNAc,0.322
same,glycan array binding signal (z-score),[13],-0.615
same,glycan array binding signal (z-score),[14],-0.531
same,glycan array binding signal (z-score),[15],-0.358
same,glycan array binding signal (z-score),[16],-0.383
same,glycan array binding signal (z-score),[17],-0.619
same,glycan array binding signal (z-score),[18],2.08
same,glycan array binding signal (z-score),[19],-0.087
same,glycan array binding signal (z-score),[20],-0.506
same,glycan array binding signal (z-score),[21],1.06
same,glycan array binding signal (z-score),[22],-0.145
same,glycan array binding signal (z-score),[23],-0.669
same,glycan array binding signal (z-score),[24],4.88
same,glycan array binding signal (z-score),[25],-0.536
same,glycan array binding signal (z-score),[26],-0.247
same,glycan array binding signal (z-score),[27],-0.549
same,glycan array binding signal (z-score),[28],4.12
same,glycan array binding signal (z-score),[29],-0.021
same,glycan array binding signal (z-score),[30],-0.514
same,glycan array binding signal (z-score),[31],-0.516
same,glycan array binding signal (z-score),[32],0.492
same,glycan array binding signal (z-score),Gal3S(b1-3)GalNAc,-0.619
same,glycan array binding signal (z-score),Gal3S(b1-3)GlcNAc,-0.328
same,glycan array binding signal (z-score),[33],-0.239
same,glycan array binding signal (z-score),Gal3S(b1-4)Glc,-0.458
same,glycan array binding signal (z-score),Gal3S(b1-4)Glc6S,0.598
same,glycan array binding signal (z-score),Gal3S(b1-4)GlcNAc,-0.517
same,glycan array binding signal (z-score),Gal3S(b1-4)GlcNAc6S,0.317
same,glycan array binding signal (z-score),[34],2.4
same,glycan array binding signal (z-score),Gal3S4S(b1-4)GlcNAc,-0.823
same,glycan array binding signal (z-score),Gal3S6S(b1-4)GlcNAc,-0.693
